The values that follow come from PubChem BioAssay AID318 (DTP/NCI, 2004).

The assay relates to BDF1 mice, P815 leukemia ip, survival T/C. The assay can be described thus: NCI In Vivo Anticancer Drug Screen. Data for tumor model P815 Mast Cell Leukemia (Ascitic) (intraperitoneal) in B6D2F1 (BDF1) mice. Conditions: endpoint: survival time, mean or median, higher = longer survival. The procedure: The antitumor activity of compounds was measured in mice bearing transplantable tumors. Survival or tumor size were measured and the results are expressed as the measurement made in the treated group (T) divided by the measurement made in the vehicle treated control group (C). The tumor model used in this assay is P815 Mast Cell Leukemia (Ascitic) (intraperitoneal) in B6D2F1 (BDF1) mice

Toxic doses and inconclusive results are not listed. The source holds more than one record for some entries. Only these are listed. An entry can have further records. The values listed for one entry are repeated measurements (runs, samples, wells, individuals or studies).

As for `CCCCOP(=S)(N1CC1)N1CC1`, the T/C (dose: 8.0 mg/kg/injection, schedule: Q01DX010 (ip), vehicle: saline) is 105 % of control and 150 % of control.
As for `Nc1nc(SCc2ccccc2)c2[nH]cnc2n1`, for the setting “dose: 32.0 mg/kg/injection, schedule: Q01DX010 (ip), vehicle: saline”, the T/C was 122 % of control and 155 % of control.
In the case of `Cn1c(N)nc2nc[nH]c2c1=S`, the T/C (dose: 80.0 mg/kg/injection, schedule: Q01DX010 (ip), vehicle: saline) was 112 % of control and 166 % of control.
Turning to `CN(C)/N=N/c1nc[nH]c1C(N)=O`, the T/C (dose: 75.0 mg/kg/injection, schedule: Q01DX015 (ip), vehicle: carboxymethylcellulose (CMC)) was 120 % of control and 168 % of control.
